From PubChem BioAssay (Tox21)
Several values for one entry are separate records, joined by “and”; a condition that tells them apart may be missing. Equal entries are not always repeated. This list was built around the results that the source calls inconclusive (neither active nor inactive); the mix of calls is not that of the screen. For some assays here: Potencies beside an inconclusive call are fits to weak or partial responses and may not hold up. Activity calls are given as the source filed them. Unless noted, the call rests on the fitted dose curve; in most records, active means well fitted curve in the direction sought with a large enough effect in the repeat runs; inconclusive means weak or mixed curves; inactive means no such curve, though single readings can be large; an effect the other way counts as inactive or inconclusive.

What was measured:
[1] = qHTS assay to identify small molecule agonists of the endoplasmic reticulum stress response signaling pathway - cell viability counter screen (AID 1159517; calls by dose curve; further: nearly all actives have a fitted effect of over 50% in size)
In short: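 ESRE-bla HeLa cells, 1,500 per well, seeded overnight then treated with compounds for 5 hr at 37 C. After the beta-lactamase read, viability in the same wells is measured by CellTiter-Glo luminescence after 30 min at room temperature.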

[2] = qHTS assay to identify small molecule antagonists of the retinoid-related orphan receptor gamma (ROR-gamma) signaling pathway - cell viability counter screen (AID 1159520); further: nearly all actives have a fitted effect of over 50% in size
In short: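 Tet-on ROR gamma CHO cells were given compounds for 2 hr, then doxycycline hyclate at 1 uM final, and incubated 16 hr at 37 C. Viability was measured as ATP content by CellTiter-Glo luminescence.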

[3] = target: Retinoic acid receptor RXR-alpha (Homo sapiens) (UniProt P19793); assay: qHTS assay to identify small molecule agonists of the RXR signaling pathway (AID 1159527; calls by dose curve; further: nearly all actives have a fitted effect of over 35% in size; on activation: on the % scale 0 is the no-effect control and ±100 the full control effect); conditions: HEK293T RXRa-UAS-bla, beta-lactamase ratio, 16 h; activation: at 76.8 µM (top of the series) unless noted
Sequence of UniProt P19793 (P19793 whole entry, looked up): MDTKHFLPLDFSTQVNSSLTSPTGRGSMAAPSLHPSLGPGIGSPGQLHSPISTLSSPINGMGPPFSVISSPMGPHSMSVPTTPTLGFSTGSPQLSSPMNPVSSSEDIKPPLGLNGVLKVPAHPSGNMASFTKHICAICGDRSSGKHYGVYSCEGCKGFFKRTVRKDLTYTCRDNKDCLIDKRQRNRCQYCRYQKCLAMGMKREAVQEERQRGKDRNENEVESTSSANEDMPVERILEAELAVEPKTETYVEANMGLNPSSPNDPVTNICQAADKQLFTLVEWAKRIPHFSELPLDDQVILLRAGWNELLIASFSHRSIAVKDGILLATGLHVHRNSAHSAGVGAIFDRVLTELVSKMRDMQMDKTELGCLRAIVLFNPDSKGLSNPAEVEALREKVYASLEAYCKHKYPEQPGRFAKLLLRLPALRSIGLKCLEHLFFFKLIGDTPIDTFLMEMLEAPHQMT
In short: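 Agonist mode; 9-cis retinoic acid positive control. HEK 293T UAS-bla reporter cells, 2% charcoal-stripped FBS, 16 hr compound exposure at 37 C/5% CO2. LiveBLAzer B/G FRET substrate 2 hr RT; ex 405, em 460/530 nm.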

[4] = qHTS assay to identify small molecule agonists of the RXR signaling pathway - cell viability counter screen (AID 1159529); further: nearly all actives have a fitted effect of over 50% in size
In short: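 Luminescence from CellTiter-Glo (30 min, RT) measured viability in the same wells as the beta-lactamase reporter readout. Cells: GeneBLAzer RXR-alpha HEK 293T, 2% charcoal-stripped FBS. Compound exposure 16 hr, 37 C.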

[5] = qHTS assay to identify small molecule agonists of the retinoic acid receptor (RAR) signaling pathway (AID 1159553); conditions: C3RL4 RARE luciferase reporter, agonist, 6 h; activation: at 73.3 µM (top of the series) unless noted; on activation: on the % scale 0 is the no-effect control and ±100 the full control effect
In short: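 Activation of retinol signaling was monitored via a RARE luciferase reporter in C3RL4 cells. After 6 hr compound treatment at 37 C, detection reagent was added for 30 min at room temperature before luminescence reading.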

[6] = qHTS assay to identify small molecule antagonists of the estrogen related receptor (ERR) signaling pathway from Tox21 library - cell viability counter screen (AID 1224834); further: nearly all actives have a fitted effect of over 30% in size
In short: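 CellTiter-Fluor fluorescence measured; ERR cells; 17.5 h compound incubation at 37 C; 30 min reagent step.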

[7] = target: Luciferin 4-monooxygenase (Photinus pyralis) (UniProt P08659); assay: qHTS assay to identify small molecule inhibitors of firefly luciferase (AID 1224835); further: nearly all actives have a fitted effect of over 25% in size
Sequence of UniProt P08659 (P08659 whole entry, looked up): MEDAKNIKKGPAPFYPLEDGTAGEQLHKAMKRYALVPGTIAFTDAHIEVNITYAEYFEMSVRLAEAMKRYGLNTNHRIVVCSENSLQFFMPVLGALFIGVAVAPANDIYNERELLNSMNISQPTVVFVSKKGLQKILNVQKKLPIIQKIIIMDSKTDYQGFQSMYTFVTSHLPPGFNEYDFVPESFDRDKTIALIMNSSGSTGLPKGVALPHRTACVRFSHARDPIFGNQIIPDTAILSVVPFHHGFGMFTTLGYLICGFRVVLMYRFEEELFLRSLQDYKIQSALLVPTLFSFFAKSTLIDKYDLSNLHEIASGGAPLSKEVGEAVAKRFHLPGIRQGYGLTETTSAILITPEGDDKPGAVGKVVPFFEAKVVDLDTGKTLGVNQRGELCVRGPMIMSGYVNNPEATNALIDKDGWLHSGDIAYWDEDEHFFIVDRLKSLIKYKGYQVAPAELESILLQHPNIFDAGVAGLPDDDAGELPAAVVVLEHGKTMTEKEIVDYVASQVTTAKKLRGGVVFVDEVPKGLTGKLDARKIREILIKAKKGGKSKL
In short: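 Biochemical qHTS: compounds run as interplate titrations against purified firefly enzyme, with D-luciferin and ATP each at its KM concentration. Light output recorded by CCD imaging.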

[8] = qHTS assay to identify small molecule agonists of the constitutive androstane receptor (CAR) signaling pathway - cell viability counter screen (AID 1224836); further: nearly all actives have a fitted effect of over 45% in size
In short: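 Viability read-out: CellTiter-Fluor fluorescence after 23 h compound exposure at 37 C/5% CO2 in double-stable HepG2-CYP2B6-hCAR cells, with PK11195 present at 0.75 uM final; compounds tested in 15-point titration.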

[9] = qHTS assay to identify small molecule antagonists of the constitutive androstane receptor (CAR) signaling pathway - cell viability counter screen (AID 1224837); further: nearly all actives have a fitted effect of over 45% in size
In short: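 Using CellTiter-Fluor, viability is scored in HepG2 cells stably carrying hCAR and a 2.2kb CYP2B6 reporter after 23 hr compound exposure across 15 concentrations, with CITCO present at 50 nM.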

[10] = target: Nuclear receptor ROR-gamma (Homo sapiens) (UniProt P51449); assay: qHTS assay to identify small molecule antagonists of the retinoid-related orphan receptor gamma (ROR-gamma) signaling pathway (AID 1159521; further: nearly all actives have a fitted effect of over 50% in size)
In short: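 Luminescence readout (ONE-Glo, 30 min RT) after 16 h doxycycline induction; loss of signal scored as antagonism. CHO cells with TET-inducible RORγ and RORE-LUC reporter; compounds added 2 h before 1 uM final doxycycline.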

[11] = qHTS assay to identify small molecule antagonists of the retinoic acid receptor (RAR) signaling pathway (AID 1159552; further: nearly all actives have a fitted effect of over 50% in size)
In short: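 Luminescence from a RARE luciferase reporter in C3RL4 cells served as read-out. Cells received compounds together with 1 uM final retinol and incubated 6 hr at 37 C before detection reagent was added for 30 min at room temperature.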

[12] = qHTS assay to identify small molecule agonists of the AP-1 signaling pathway - cell viability counter screen (AID 1159525; calls by dose curve; further: nearly all actives have a fitted effect of over 55% in size)
In short: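 AP-1-bla ME-180 cells in Opti-MEM with 0.5% dialyzed FBS, compound exposure 5 h at 37 C in 15-point titration. Viability read in the same wells as ATP content by CellTiter-Glo luminescence, normalised to tetra-n-octylammonium bromide and DMSO controls.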

[13] = qHTS assay to identify small molecule agonists of the AP-1 signaling pathway (AID 1159526; calls by dose curve; on activation: on the % scale 0 is the no-effect control and ±100 the full control effect); conditions: ME-180 (cervical carcinoma) AP-1-bla reporter, beta-lactamase FRET ratio, 5 h; activation: at 76.8 µM (top of the series) unless noted
[14] = qHTS assay to identify small molecule antagonists of the retinoid acid receptor (RAR) signaling pathway - cell viability counter screen (AID 1159551); further: nearly all actives have a fitted effect of over 35% in size
In short: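 Seed C3RL4 cells; next day add compound, then retinol to 1 uM final; incubate 6 h at 37 C; add CellTiter-Glo; read luminescence after 30 min at RT.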
Potency means the concentration at half of the fitted maximal effect; tags describe the fitted curve by direction and shape or compound fluorescence and quenching.

In the case of `CCC(C)(C)c1ccc(O)c(C(C)(C)CC)c1`, the Potency [1] is reported as active: 15.3 µM and active: 21.9 µM, the Potency [2] is reported as active: 60.4 µM and inconclusive: 17.2 µM [cytotoxic, full curve] and the Potency [3] is reported as inconclusive: 24.3 µM and inconclusive: 24.5 µM [cytotoxic, full curve]. The Potency [4] was active: 12.2 µM and active: 12.3 µM, the Potency [5] was inconclusive: 19.1 µM [inhibitor, partial curve, poor fit] and inconclusive: 30.6 µM [inhibitor] and the Potency [6] was active: 48 µM and inconclusive: 27.3 µM [cytotoxic, single point]. For the same compound, the Potency [7] was “inactive”, the Potency [8] was inconclusive: 61.1 µM [cytotoxic, single point] and the Potency [9] was inconclusive: 60.4 µM [cytotoxic, single point] and inconclusive: 68.6 µM [cytotoxic, single point].
With `CCCCC(CC)COC(=O)c1ccccc1C(=O)OCC(CC)CCCC` (stereo not drawn) the Potency [1] was inconclusive: 2.19 µM [cytotoxic, full curve, poor fit], the Potency [10] was inconclusive: 0.864 µM [inhibitor, full curve, poor fit] and the Potency [3] was inconclusive: 2.75 µM [inhibitor, full curve, poor fit]. The Potency [11] was inconclusive: 7.7 µM [inhibitor, full curve] and the Potency [6] was “inactive”.
In the case of `Cc1ccc(N=C=O)cc1N=C=O`, the Potency [1] is reported as “inactive and inconclusive: 21.8 µM [cytotoxic, single point]”, the Potency [10] is reported as “inactive” and the Potency [12] is reported as inconclusive: 27.5 µM [rising, single point]. For the same compound, the Potency [4] was inconclusive: 56.4 µM [cytotoxic, single point] and inconclusive: 21.8 µM [cytotoxic, partial curve] and the Potency [5] was inconclusive: 62.7 µM [activator, partial curve, poor fit].
With `CC(C)N(C(=O)SC/C(Cl)=C/Cl)C(C)C` the Potency [1] was “inactive”, the Potency [10] was “inactive” and the activation [13] was inconclusive: 26.5%. The Potency [3] was “inactive” and the Potency [11] was inconclusive: 61.5 µM [inhibitor, partial curve, poor fit].
With `C#CCOS(=O)OC1CCCCC1Oc1ccc(C(C)(C)C)cc1` (stereo not drawn) the Potency [1] was “inactive”, the Potency [10] was active: 1.94 µM and active: 3.86 µM and the Potency [13] was inconclusive: 43.7 µM [falling, partial curve, poor fit] and inconclusive: 49 µM [falling, partial curve, poor fit]. For the same compound, the Potency [4] was active: 27.6 µM and active: 43.6 µM, the Potency [14] was inconclusive: 68.7 µM [cytotoxic, single point] and inconclusive: 61.1 µM [cytotoxic, partial curve] and the Potency [6] was inconclusive: 3.86 µM [cytotoxic, full curve] and active: 4.33 µM. For the same compound, the Potency [7] was inconclusive: 50.3 µM [inhibitor, partial curve] and inconclusive: 44.8 µM [inhibitor, single point], the Potency [8] was inconclusive: 7.7 µM [cytotoxic, full curve] and the Potency [9] was inconclusive: 7.7 µM [cytotoxic, full curve].
With `COc1cccc(C(=O)CCN[C@@H](C)[C@H](O)c2ccccc2)c1` the Potency [1] was inconclusive: 30.1 µM [cytotoxic, single point], the Potency [10] was inconclusive: 6.68 µM [inhibitor, full curve, poor fit] and the Potency [13] was inconclusive: 16.9 µM [falling, partial curve, poor fit]. For the same compound, the Potency [3] was inconclusive: 21.3 µM, the Potency [4] was inconclusive: 26.8 µM [cytotoxic] and the Potency [14] was inconclusive: 33.5 µM [rising, partial curve, poor fit]. The Potency [5] was “inactive” and the Potency [9] was inconclusive: 26.6 µM [cytotoxic, partial curve].
In the case of `Clc1ccc(C(Cl)(Cl)Cl)cc1Cl`, the Potency [1] is reported as inconclusive: 53.8 µM [cytotoxic, single point], the Potency [2] is reported as active: 53.3 µM and the Potency [3] is reported as “inactive”.
For `CC(=O)O[C@H]1CC[C@@]2(C)C(=CC[C@@H]3[C@@H]2CC[C@]2(C)C(=O)CC[C@@H]32)C1`, the Potency [1] was inconclusive: 24.5 µM [cytotoxic, single point], the Potency [10] was active: 48.6 µM and the Potency [12] was inconclusive: 54.9 µM [cytotoxic, single point]. The Potency [13] was inconclusive: 49 µM, the Potency [3] was inconclusive: 21.9 µM and the Potency [4] was inconclusive: 12.3 µM [cytotoxic, full curve]. The Potency [14] was inconclusive: 77 µM [cytotoxic, single point], the Potency [5] was inconclusive: 68.6 µM [inhibitor, partial curve, poor fit] and the Potency [6] was inconclusive: 68.6 µM [cytotoxic, single point].
